This is an account of results in PubChem BioAssay (NCATS).

In assay [1] the target is Cellular tumor antigen p53 (Homo sapiens) (UniProt P04637). The experiment in a line: Primary qHTS for small molecule compounds that upregulate eGFP-tagged delta133p53alpha (in N-terminal) cells. (AID 2060322).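 Also: cells pre-induced with doxycycline then dosed without doxycycline; 0% = DMSO vehicle and 100% = reference activator; nearly all actives have a fitted effect of over 75% in size.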 As to conditions: NCI-H358 eGFP-delta133p53alpha fluorescence, 24 h; stronger effect = higher value. (In qHTS, concentration-response curves come from the screen itself.)
UniProt P04637, sequence (P04637 whole entry, looked up): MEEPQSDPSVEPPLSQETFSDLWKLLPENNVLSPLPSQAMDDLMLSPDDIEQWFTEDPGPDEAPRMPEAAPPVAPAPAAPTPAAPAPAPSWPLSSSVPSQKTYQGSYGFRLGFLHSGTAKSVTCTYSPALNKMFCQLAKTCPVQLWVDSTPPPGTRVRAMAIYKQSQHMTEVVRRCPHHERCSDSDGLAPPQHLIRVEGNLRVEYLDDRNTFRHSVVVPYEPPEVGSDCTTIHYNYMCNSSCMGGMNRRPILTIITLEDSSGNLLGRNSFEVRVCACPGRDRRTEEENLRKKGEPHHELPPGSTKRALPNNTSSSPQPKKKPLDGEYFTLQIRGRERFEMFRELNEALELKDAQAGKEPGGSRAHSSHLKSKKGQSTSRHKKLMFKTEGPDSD
Assay [2] addresses Aldehyde dehydrogenase, mitochondrial (Homo sapiens) (UniProt P05091). Put plainly: qHTS for Inhibitors of the Aldehyde Dehydrogenase Family (ALDH2) Confirmatory screens (AID 2061303; active = well fitted inhibition curve with a large enough effect; title and protocol of this record describe different tests; also: nearly all actives have a fitted effect of over 45% in size; also: potency is read from the fitted curve at half-maximal effect). As to conditions: ALDH inhibition qHTS; series mostly up to 45.4 µM.
Assay [3] shares this target. Put plainly: qHTS for Inhibitors of the Aldehyde Dehydrogenase Family (ALDH2) Primary screen (AID 2061308). Also: nearly all actives have a fitted effect of over 55% in size. Also: potency is read from the fitted curve at half-maximal effect. The conditions noted are these: ALDH2 enzyme inhibition qHTS, 1536-well; series mostly up to 56 µM.
For assay [4], the target named is Retinaldehyde dehydrogenase 3 (Homo sapiens) (UniProt P47895). Put plainly: qHTS for Inhibitors of the Aldehyde Dehydrogenase Family (ALDH1A3) Validation screen (AID 2061312). Also: nearly all actives have a fitted effect of over 45% in size. Also: potency is read from the fitted curve at half-maximal effect. The conditions noted are these: ALDH1A3 enzyme inhibition qHTS validation, fluorescence; series mostly up to 42.4 µM.
The target is the same in assay [5]. The experiment in a line: qHTS for Inhibitors of the Aldehyde Dehydrogenase Family (ALDH1A3) Primary screen (AID 2061315). Also: potency is read from the fitted curve at half-maximal effect. The conditions noted are these: ALDH inhibition qHTS; series mostly up to 56 µM.
Assay [6] concerns the target Aldehyde dehydrogenase 1A1 (Homo sapiens) (UniProt P00352). The experiment in a line: qHTS for Inhibitors of the Aldehyde Dehydrogenase Family (ALDH1A1) Confirmatory screens (AID 2061316). Also: nearly all actives have a fitted effect of over 65% in size. Also: potency is read from the fitted curve at half-maximal effect. The conditions noted are these: ALDH inhibition qHTS; series mostly up to 47.3 µM.

The structures appear in SMILES notation. Inconclusive results are not listed. Unless noted, calls follow the shape of the dose curve; as a rule, active = well fitted curve in the direction sought with a large enough effect; inconclusive = small, poorly fitted or top-dose-only effect, or another doubt; inactive = no such curve, though single readings can be large; an effect the other way counts as inactive or inconclusive. For part of its entries the source gives two or more results. Only these are listed. The source may hold further records. The values listed for one entry are repeats across runs, samples, wells, individuals or studies. The source holds several records for some structures; these can differ, active in one and inactive in another. What stands in brackets tells the records apart. A, B and so on number the origins entry by entry. Marks such as (2×) say how often a value occurs here.

In the case of `Cc1cc(C(C)(C)C)c(O)c(C)c1CC1=NCCN1`, the activation result in assay [1] was “inactive: -40.9, -1.95, -26.6, 5.25% [separate samples]”.
As to `O=C(O)c1ccc(-n2cccc2/C=C2\SC(=O)N(Cc3ccc(Cl)cc3)C2=O)cc1`, the Potency entry in assay [2] is “active: 15.8 µM [sample A] and inactive [sample B]”; in assay [3] it was “active: 12.6 µM [sample A] and inactive [sample B]”.
Take `CC(=O)Nc1sc2c(c1-c1nc3ccccc3s1)CNC2`: the Potency entry in assay [3] is “active: 11.2 µM and inactive (3×) [separate samples]”.
On to `CC(C)(C)c1ccc(S(=O)(=O)/C=C/C#N)cc1`, for which the Potency result in assay [4] was “inactive [sample A] and active: 4.47 µM [sample B]”.
Turning to `O=C1NC(=O)/C(=C/c2ccc3c(c2)OC(F)(F)O3)S1`, the Potency entry in assay [4] was “inactive [sample A] and active: 31.6 µM [sample B]”.
For the molecule `COc1cc(Nc2ncc(F)c(Nc3ccc4c(n3)NC(=O)C(C)(C)O4)n2)cc(OC)c1OC`, the Potency entry in assay [5] was “inactive [sample A] and inactive [sample B] and active: 11.2 µM [sample C]”.
With `CCOc1ccc(Nc2nc(-c3c(C)nc4ccccn34)cs2)cc1`, in assay [6], the Potency result was “active: 7.98 µM [sample A] and inactive [sample B]”.
As to `Cc1cc(C)c2c(c1)C(N(Cc1cc(C(F)(F)F)cc(C(F)(F)F)c1)c1nnn(C)n1)CCCN2CC1CCC(C(=O)O)CC1` (centres undefined), the Potency entry in assay [6] was “active: 11.3 µM [sample A] and inactive [sample B]”.
